# Reference: PubChem BioAssay AID686971 (National Center for Advancing Translational Sciences (NCATS), 2013)
# In all, about 360,000 compounds went through this assay and about 7,500 (2.1%) were called active. Inconclusive means that the source gave no clear call. Such entries were picked first, then a sample of the others. Calls follow the shape of the dose curve; as a rule, active = well fitted cell-killing curve with a large enough effect; inconclusive = small, poorly fitted or top-dose-only effect, or effect the other way, or another doubt; inactive = no such curve, though single readings can be large or run the other way. Potencies of inconclusive entries are left out as doubtful fits.
# Experiment: qHTS for induction of synthetic lethality in tumor cells producing 2HG: qHTS for the HT-1080-IDH1KD cell line;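 as to activity, negative = toxicity: 0% = DMSO wells and -100% = cell-free medium wells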
# Details: HT-1080 IDH1 knockdown viability, ATP luminescence, 48 h; activity, negative = toxicity: at 46.1 µM (top of the series) unless noted
# Summary of the method: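 In this qHTS, HT-1080 cells depleted of IDH1 are exposed for 48 h at 37 °C to compound titrations. Toxicity is scored from CellTiter-Glo luminescence, with DMSO as full viability and medium alone as none.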
# Potency is read from the fitted curve at half-maximal effect; tags tell the direction and shape of the fitted curve.
SMILES,Potency,"activity, negative = toxicity"
O=C(N/N=C\c1ccccn1)C1c2ccccc2Oc2ccccc21,"inconclusive [cytotoxic, full curve]",
Cc1cccc(CSc2cccc3cccnc23)c1,"inconclusive [cytotoxic, partial curve]",
CCCc1[nH]nc2c1C1(CCN(C(=O)OCc3ccccc3)CC1)C(C#N)=C(N)O2,"inconclusive [cytotoxic, full curve, poor fit]",
COc1ccccc1NC(=O)CSc1ncnc2c1oc1ccccc12,"inconclusive [cytotoxic, single point]",
COCCNC(=O)c1cc2nc(-c3ccc(F)cc3)cc(C(F)(F)F)n2n1,"inconclusive [rising, partial curve]",
CN1CCN(CCCNC(=O)Cn2ncc3c4ccccc4n(C)c3c2=O)CC1,inactive,
CC1(C(=O)NS(=O)(=O)c2ccc(Cl)cc2)CCN1C(=O)Cc1cc(F)ccc1F (stereo unspecified),"inconclusive [rising, single point]",
CCOc1ccc(NC(=NCc2ccc3c(c2)OCO3)SC2CC(=O)N(c3ccc(OCC)cc3)C2=O)cc1 (stereo unspecified),"inconclusive [cytotoxic, single point]",
Cc1noc2ncnc(Sc3ccc(Br)cc3)c12,"inconclusive [cytotoxic, partial curve]",
CC(C)C[C@H]1CN=C(Nc2ccccc2)N1CCC(C)c1ccccc1 (stereo partly specified),inactive,
Cc1nc2sc(-c3ccccc3)cc2c(=O)[nH]1,"inconclusive [cytotoxic, single point]",
Cc1ccc(C)c(C(O)c2ncc(-c3cccc(F)c3)[nH]2)c1 (stereo unspecified),inactive,
C#CCN1c2ccccc2Sc2cccnc21,"inconclusive [cytotoxic, partial curve]",
O=C(Nc1cccnc1)c1cccc(NC(=O)c2ccco2)c1,inactive,
CCOC(=O)c1ccc(S(=O)(=O)NCCNCc2ccccc2)cc1,inactive,
COc1ccc2c(c1)Sc1ccccc1N2,"inconclusive [cytotoxic, single point]",
CN(C(=S)NC(=O)Cc1ccccc1)c1ccccc1,active: 18.4 µM,
CC1=CCC(Cc2nc3ccccc3o2)C1(C)C (stereo unspecified),inactive,
COc1ccc(-c2nsc3c(N4CCN(S(=O)(=O)c5ccccc5F)CC4)ncnc23)cc1,inactive,
NS(=O)(=O)c1ccc(CCNC(=O)c2cc(-c3cc(Cl)ccc3O)n[nH]2)cc1,"inconclusive [cytotoxic, single point]",
COc1cc(C(=O)N2CCN(c3ncnc4sc(C)c(C)c34)CC2)cc(OC)c1OC,"inconclusive [cytotoxic, single point]",
CCCS(=O)(=O)NC(=O)C1(C)CCCN(C(=O)c2cc(F)ccc2C)C1 (stereo unspecified),"inconclusive [cytotoxic, single point]",
CN(Cc1cccc2cnccc12)C(=O)c1cc(COc2ccc(F)cc2Cl)on1,"inconclusive [cytotoxic, single point]",
COc1ccccc1CCC(=O)NNC(=O)c1ccc(Br)cc1,"inconclusive [cytotoxic, single point]",

SMILES,Potency,"activity, negative = toxicity"
COc1ccccc1-c1csc(C(O)(c2ccccc2)C(F)(F)F)n1 (stereo unspecified),"inconclusive [cytotoxic, single point]",
CN(C)CCNc1nc2sc3c(c2c(=O)n1-c1ccc(F)cc1)CCCCC3,"inconclusive [cytotoxic, single point]",
CCn1c2ccccc2c2cc(N=C3SC(CC(=O)Nc4ccccc4)C(=O)N3C)ccc21 (stereo unspecified),"inconclusive [cytotoxic, single point]",
CC(=O)N1CCOc2ccc(S(=O)(=O)N3CCN(c4cccc(C(F)(F)F)c4)CC3)cc21,"inconclusive [cytotoxic, single point]",
S=c1[nH]nc(-c2cc(-c3ccccc3)n[nH]2)n1/N=C/C(Br)=C/c1ccccc1,active: 5.8 µM,
CCc1ccc(C(=O)C(C)OC(=O)Cc2n[nH]c(=O)c3ccccc23)cc1 (stereo unspecified),active: 13 µM,
N#Cc1ccccc1CSC1=NCCS1,inactive,
O=C(CO/N=C/c1ccc(OC(F)F)cc1)N1CCc2ccccc21,"inconclusive [cytotoxic, single point]",
CCOc1cccc2sc(N(CCN(C)C)C(=O)c3cc4ccccc4cc3OC)nc12,active: 20.6 µM,
CCCN1C(=O)c2cc(C(=O)Nc3ccccc3C)ccc2C1Nc1ccccc1C (stereo unspecified),"inconclusive [cytotoxic, single point]",
CC(=O)c1nnn(-c2ccc([N+](=O)[O-])cc2C)c1C,inactive,
O=C(Nc1csc([N+](=O)[O-])c1)Nc1ccccc1Cl,"inconclusive [cytotoxic, single point]",
FC(F)(F)c1ccccc1Cc1c(-c2cccc(Cl)c2)nc2ccc(Cl)cn12,inactive,
COc1ccc(C2CC(c3ccccc3)=NN2C(=O)COC(=O)C2(C)CC2(Cl)Cl)cc1 (stereo unspecified),inactive,
Cc1ccc(-c2noc(CCCC(=O)Nc3cccnc3)n2)cc1,active: 23.1 µM,
CCCC(C(=O)NC1CCCC1)N(Cc1cccs1)C(=O)c1snc(C(N)=O)c1N (stereo unspecified),inactive,
COc1ccc(NC(=O)O/N=C/c2ccc(N(C)C)cc2)cc1,"inconclusive [cytotoxic, single point]",
CC1(C)Cc2ccccc2C(c2cc3ccccc3oc2=O)=N1,"inconclusive [cytotoxic, partial curve]",
COc1cn(-c2ccccc2)nc1C(=O)Nc1ccc(C)cc1Cl,inactive,
COc1ccc(Cl)cc1C(=O)NCc1ccco1,inactive,
Cc1ccc(-n2c(C)cc(/C=N/NC(=O)Cn3c4ccccc4c(=O)c4ccccc43)c2C)cc1,"inconclusive [cytotoxic, single point]",
CC(C)(C)C(c1nc2ccccc2[nH]1)n1c(-c2cccc(S(C)(=O)=O)c2)nc2ccccc21 (stereo unspecified),inactive,
COc1ccc(Cl)cc1NC(=O)CC(=O)Nc1cc(Cl)ccc1OC,"inconclusive [cytotoxic, partial curve]",
CSC1=NC(C)(C)C=C(/C=C/c2ccc(Cl)cc2)N1,"inconclusive [cytotoxic, single point]",

SMILES,Potency,"activity, negative = toxicity"
COC(=O)C(Cc1ccccc1)NC(=O)COc1ccc(C(C)(C)C)cc1 (stereo unspecified),"inconclusive [cytotoxic, partial curve]",
Cc1cccc(-c2noc(CCC(=O)NC3CCCCC3)n2)c1,inactive,
Cc1ccc(NC(=O)c2cc(N3CCOCC3)nc3ccccc23)cc1,"inconclusive [cytotoxic, single point]",
COC(=O)c1ccc(NC(=O)Nc2ccc(F)c(Cl)c2)cc1,"inconclusive [cytotoxic, single point]",
Cc1cc(OCc2cc(C(=O)NCCN3CCCCC3CO)no2)cc(C)c1Cl (stereo unspecified),"inconclusive [cytotoxic, single point]",
CCOC(=O)c1ccc(NC(=O)c2ccc(CN3CCOCC3)cc2)cc1,"inconclusive [cytotoxic, partial curve]",
Cc1c(C(=O)NCc2ccc3c(c2)OCCO3)sc(=O)n1Cc1ccc(S(=O)(=O)N(C)C)cc1,"inconclusive [cytotoxic, single point]",
Cc1ccc(Cl)cc1NC(=O)CCC(=O)O,,inconclusive: 30.3%
CCOc1ccc(Cn2nnc(C(=O)NCc3ccc(OC)cc3)c2N)cc1,,inconclusive: -15% [cytotoxic]
O=C(Nc1cccc(S(=O)(=O)Nc2ccc(Cl)cc2)c1)c1ccc2c(c1)OCCO2,"inconclusive [cytotoxic, full curve]",
Fc1ccccc1N1CC(c2ccccc2)C(c2cccs2)=N1 (stereo unspecified),"inconclusive [cytotoxic, single point]",
Oc1ccc(/C=N/Nc2ncc(Br)cn2)c(O)c1,"inconclusive [cytotoxic, full curve, poor fit]",
c1ccc(Nc2cccc(Nc3ccccc3)n2)cc1,"inconclusive [cytotoxic, single point]",
O=C(Nc1ccn(CCCNCc2cccc3ccccc23)c(=O)n1)OCc1ccccc1,"inconclusive [cytotoxic, single point]",
CCCCNC(=S)NNC(=O)c1cc(C)on1,"inconclusive [cytotoxic, single point]",
CSc1ccccc1C(=O)N(C)C(c1ccccc1)c1ccccc1,"inconclusive [cytotoxic, single point]",
Clc1cccc(Cc2c(-c3cccc(Cl)c3)nc3ccc(Br)cn23)c1,"inconclusive [cytotoxic, single point]",
COc1ccc(-c2cc(C(F)(F)F)nc(N3CCN(C)CC3)n2)cc1,"inconclusive [cytotoxic, single point]",
C[C@@H]1CN([C@@H](C)CO)C(=O)CCCn2nncc2CO[C@H]1CN(C)C(=O)C1CC1,inactive,
COc1ccc(C(C(=O)NC2CCCCC2)N(C(=O)CCl)c2ccc(OC)cc2)cc1 (stereo unspecified),active: 1.16 µM,
Clc1ccc(OCc2nnc3n2N=C(c2ccc4c(c2)OCCO4)CS3)c(Cl)c1,active: 8.91 µM,
Cc1ccc(C)c(-n2cc(CNCCCn3cccn3)c(-c3ccccc3)n2)c1,"inconclusive [cytotoxic, single point]",
O=C(CCCN1C(=O)/C(=C\c2ccccc2)SC1=S)N1CCOCC1,"inconclusive [cytotoxic, partial curve]",
